{"source": "paper PMC9911399", "about": "“Two distinct binding modes provide the RNA-binding protein RbFox with extraordinary sequence specificity”", "binders": {"B1": {"name": "GUUCUAG (DNA:RNA)", "RNA": "GGGAGACCGGAAUUCAGAUUGUCCGUUCUAGUUAAAUCCCGUCGUAGCCACCA", "DNA 1": "CAATCTGAATTCCGGTCTCCC", "DNA 2": "TGGTGGCTACGACGGGATT"}, "B2": {"name": "CGUUCAC (DNA:RNA)", "RNA": "B1 RNA with G25C, U26G, C28U, U29C, G31C", "DNA 1": "CAATCTGAATTCCGGTCTCCC", "DNA 2": "TGGTGGCTACGACGGGATT"}, "B3": {"name": "UACUCAU (DNA:RNA)", "RNA": "B1 RNA with G25U, U26A, U27C, C28U, U29C, G31U", "DNA 1": "CAATCTGAATTCCGGTCTCCC", "DNA 2": "TGGTGGCTACGACGGGATT"}, "B4": {"name": "CCCUCCU (DNA:RNA)", "RNA": "GGGAGACCGGAAUUCAGAUUGUCCCCCUCCUUUAAAUCCCGUCGUAGCCACCA", "DNA 1": "CAATCTGAATTCCGGTCTCCC", "DNA 2": "TGGTGGCTACGACGGGATT"}, "B5": {"name": "ACGAACG (DNA:RNA)", "RNA": "B4 RNA with C25A, C27G, U28A, C29A, U31G", "DNA 1": "CAATCTGAATTCCGGTCTCCC", "DNA 2": "TGGTGGCTACGACGGGATT"}, "B6": {"name": "AUACGAU (DNA:RNA)", "RNA": "B1 RNA with G25A, U27A, U29G, G31U", "DNA 1": "CAATCTGAATTCCGGTCTCCC", "DNA 2": "TGGTGGCTACGACGGGATT"}, "B7": {"name": "GACACUA (DNA:RNA)", "RNA": "B4 RNA with C25G, C26A, U28A, C30U, U31A", "DNA 1": "CAATCTGAATTCCGGTCTCCC", "DNA 2": "TGGTGGCTACGACGGGATT"}, "B8": {"name": "UGCUACU (DNA:RNA)", "RNA": "B4 RNA with C25U, C26G, C29A", "DNA 1": "CAATCTGAATTCCGGTCTCCC", "DNA 2": "TGGTGGCTACGACGGGATT"}, "B9": {"name": "CGUUCCA (DNA:RNA)", "RNA": "B4 RNA with C26G, C27U, U31A", "DNA 1": "CAATCTGAATTCCGGTCTCCC", "DNA 2": "TGGTGGCTACGACGGGATT"}, "B10": {"name": "CCGAAAU (DNA:RNA)", "RNA": "B4 RNA with C27G, U28A, C29A, C30A", "DNA 1": "CAATCTGAATTCCGGTCTCCC", "DNA 2": "TGGTGGCTACGACGGGATT"}, "B11": {"name": "UUAGUUG (DNA:RNA)", "RNA": "B1 RNA with G25U, U27A, C28G, A30U", "DNA 1": "CAATCTGAATTCCGGTCTCCC", "DNA 2": "TGGTGGCTACGACGGGATT"}, "B12": {"name": "CGAACGC (DNA:RNA)", "RNA": "B4 RNA with C26G, C27A, U28A, C30G, U31C", "DNA 1": "CAATCTGAATTCCGGTCTCCC", "DNA 2": "TGGTGGCTACGACGGGATT"}, "B13": {"name": "UAUCUGG (DNA:RNA)", "RNA": "B1 RNA with G25U, U26A, A30G", "DNA 1": "CAATCTGAATTCCGGTCTCCC", "DNA 2": "TGGTGGCTACGACGGGATT"}, "B14": {"name": "CCAAUGA (DNA:RNA)", "RNA": "B4 RNA with C27A, U28A, C29U, C30G, U31A", "DNA 1": "CAATCTGAATTCCGGTCTCCC", "DNA 2": "TGGTGGCTACGACGGGATT"}, "B15": {"name": "CCUUAGG (DNA:RNA)", "RNA": "B4 RNA with C27U, C29A, C30G, U31G", "DNA 1": "CAATCTGAATTCCGGTCTCCC", "DNA 2": "TGGTGGCTACGACGGGATT"}, "B16": {"name": "ACAUUGC (DNA:RNA)", "RNA": "B4 RNA with C25A, C27A, C29U, C30G, U31C", "DNA 1": "CAATCTGAATTCCGGTCTCCC", "DNA 2": "TGGTGGCTACGACGGGATT"}, "B17": {"name": "GCCAUUU (DNA:RNA)", "RNA": "B4 RNA with C25G, U28A, C29U, C30U", "DNA 1": "CAATCTGAATTCCGGTCTCCC", "DNA 2": "TGGTGGCTACGACGGGATT"}, "B18": {"name": "GCACAUU (DNA:RNA)", "RNA": "B4 RNA with C25G, C27A, U28C, C29A, C30U", "DNA 1": "CAATCTGAATTCCGGTCTCCC", "DNA 2": "TGGTGGCTACGACGGGATT"}, "B19": {"name": "UCUUAAG (DNA:RNA)", "RNA": "B1 RNA with G25U, U26C, C28U, U29A", "DNA 1": "CAATCTGAATTCCGGTCTCCC", "DNA 2": "TGGTGGCTACGACGGGATT"}, "B20": {"name": "CCGCAAA (DNA:RNA)", "RNA": "B4 RNA with C27G, U28C, C29A, C30A, U31A", "DNA 1": "CAATCTGAATTCCGGTCTCCC", "DNA 2": "TGGTGGCTACGACGGGATT"}, "B21": {"name": "GGUUUCA (DNA:RNA)", "RNA": "B1 RNA with U26G, C28U, A30C, G31A", "DNA 1": "CAATCTGAATTCCGGTCTCCC", "DNA 2": "TGGTGGCTACGACGGGATT"}, "B22": {"name": "CUCAUUU (DNA:RNA)", "RNA": "B4 RNA with C26U, U28A, C29U, C30U", "DNA 1": "CAATCTGAATTCCGGTCTCCC", "DNA 2": "TGGTGGCTACGACGGGATT"}, "B23": {"name": "CGAGUGA (DNA:RNA)", "RNA": "B4 RNA with C26G, C27A, U28G, C29U, C30G, U31A", "DNA 1": "CAATCTGAATTCCGGTCTCCC", "DNA 2": "TGGTGGCTACGACGGGATT"}, "B24": {"name": "ACGUUAA (DNA:RNA)", "RNA": "B4 RNA with C25A, C27G, C29U, C30A, U31A", "DNA 1": "CAATCTGAATTCCGGTCTCCC", "DNA 2": "TGGTGGCTACGACGGGATT"}, "B25": {"name": "UGAUUAU (DNA:RNA)", "RNA": "B4 RNA with C25U, C26G, C27A, C29U, C30A", "DNA 1": "CAATCTGAATTCCGGTCTCCC", "DNA 2": "TGGTGGCTACGACGGGATT"}, "B26": {"name": "UGUAGGG (DNA:RNA)", "RNA": "B1 RNA with G25U, U26G, C28A, U29G, A30G", "DNA 1": "CAATCTGAATTCCGGTCTCCC", "DNA 2": "TGGTGGCTACGACGGGATT"}, "B27": {"name": "AUUGCCA (DNA:RNA)", "RNA": "B4 RNA with C25A, C26U, C27U, U28G, U31A", "DNA 1": "CAATCTGAATTCCGGTCTCCC", "DNA 2": "TGGTGGCTACGACGGGATT"}, "B28": {"name": "CGCCACU (DNA:RNA)", "RNA": "B4 RNA with C26G, U28C, C29A", "DNA 1": "CAATCTGAATTCCGGTCTCCC", "DNA 2": "TGGTGGCTACGACGGGATT"}, "B29": {"name": "UGAACGA (DNA:RNA)", "RNA": "B4 RNA with C25U, C26G, C27A, U28A, C30G, U31A", "DNA 1": "CAATCTGAATTCCGGTCTCCC", "DNA 2": "TGGTGGCTACGACGGGATT"}, "B30": {"name": "CCUGGCG (DNA:RNA)", "RNA": "B4 RNA with C27U, U28G, C29G, U31G", "DNA 1": "CAATCTGAATTCCGGTCTCCC", "DNA 2": "TGGTGGCTACGACGGGATT"}, "B31": {"name": "ACACCGG (DNA:RNA)", "RNA": "B4 RNA with C25A, C27A, U28C, C30G, U31G", "DNA 1": "CAATCTGAATTCCGGTCTCCC", "DNA 2": "TGGTGGCTACGACGGGATT"}}, "note": "Residue numbers refer to the chain shown, from its start. The list shows a part of the results."}
{"molecular_target": "T1, RBFOX1 RRM (Homo sapiens, UniProt Q9NWB1 109-208)", "T1 sequence": "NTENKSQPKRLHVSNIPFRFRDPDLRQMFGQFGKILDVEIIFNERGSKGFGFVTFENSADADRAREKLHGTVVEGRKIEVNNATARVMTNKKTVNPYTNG", "experiment": "EMSA; HiTS-Eq, 1 nM pool, 10 min; buffer printed only for the single-RNA assays: 10 mM Tris pH 7.5, 150 mM NaCl, 3.4 mM EDTA, 0.001% NP-40, 30 C", "conditions": "tags: His6 N-terminal (pET28a); label: 5' 32P", "in_short": "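These values rest on relative association constants, computed from read-count changes of each RNA species versus the control reaction and normalised to the cognate motif. Reads came from free RNA recovered by 8% native PAGE after purified RbFox RRM (wild type or mutant) at increasing concentrations was equilibrated for 10 min in 50 µL with 1 nM of a 5′-radiolabelled pool with 7 randomized nucleotides and DNA-annealed flanks.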"}
{"binder": "B1", "binding signal": "0.0139 KA relative to UGCAUGU"}
{"binder": "B2", "binding signal": "0.00842 KA relative to UGCAUGU"}
{"binder": "B3", "binding signal": "0.00412 KA relative to UGCAUGU"}
{"binder": "B4", "binding signal": "0.000455 KA relative to UGCAUGU"}
{"binder": "B5", "binding signal": "0.0126 KA relative to UGCAUGU"}
{"binder": "B6", "binding signal": "0.00313 KA relative to UGCAUGU"}
{"binder": "B7", "binding signal": "0.00229 KA relative to UGCAUGU"}
{"binder": "B8", "binding signal": "0.0158 KA relative to UGCAUGU"}
{"binder": "B9", "binding signal": "0.00538 KA relative to UGCAUGU"}
{"binder": "B10", "binding signal": "0.00341 KA relative to UGCAUGU"}
{"binder": "B11", "binding signal": "0.0187 KA relative to UGCAUGU"}
{"binder": "B12", "binding signal": "0.00967 KA relative to UGCAUGU"}
{"binder": "B13", "binding signal": "0.0133 KA relative to UGCAUGU"}
{"binder": "B14", "binding signal": "0.00546 KA relative to UGCAUGU"}
{"binder": "B15", "binding signal": "0.0112 KA relative to UGCAUGU"}
{"binder": "B16", "binding signal": "0.00632 KA relative to UGCAUGU"}
{"binder": "B17", "binding signal": "0.0041 KA relative to UGCAUGU"}
{"binder": "B18", "binding signal": "0.00696 KA relative to UGCAUGU"}
{"binder": "B19", "binding signal": "0.0106 KA relative to UGCAUGU"}
{"binder": "B20", "binding signal": "0.00567 KA relative to UGCAUGU"}
{"binder": "B21", "binding signal": "0.0118 KA relative to UGCAUGU"}
{"binder": "B22", "binding signal": "0.0047 KA relative to UGCAUGU"}
{"binder": "B23", "binding signal": "0.0193 KA relative to UGCAUGU"}
{"binder": "B24", "binding signal": "0.00196 KA relative to UGCAUGU"}
{"binder": "B25", "binding signal": "0.0128 KA relative to UGCAUGU"}
{"binder": "B26", "binding signal": "0.00963 KA relative to UGCAUGU"}
{"binder": "B27", "binding signal": "0.00578 KA relative to UGCAUGU"}
{"binder": "B28", "binding signal": "0.00292 KA relative to UGCAUGU"}
{"binder": "B29", "binding signal": "0.0199 KA relative to UGCAUGU"}
{"binder": "B30", "binding signal": "0.0185 KA relative to UGCAUGU"}
{"binder": "B31", "binding signal": "0.000311 KA relative to UGCAUGU"}
